Whole data set: some 33,000 sequences, median “E-score (-0.5 to 0.5)” near -0.01, cut for the highest 2% near 0.26. Some of the results follow.
Each sequence was assayed against Ste12 (UniProt P13574) (assay: PBM E-score (8-mer binding enrichment) (E-score (-0.5 to 0.5)); higher = stronger / more preferred TF binding; most listed sequences are background and not binding sites). Conditions: protein concentration: 200 nM; construct: GST-DNA-binding domain.
Protocol: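 Universal 'all 10-mer' protein binding microarrays (Agilent AMADID 015681) probed with GST-tagged S. cerevisiae TFs (full-length or DBD) made by in vitro transcription/translation (PURExpress), about 100-200 nM. Bound TF was detected with fluorescent anti-GST. Each ungapped 8-mer (which stands for itself and its reverse complement) is scored by the PBM enrichment score (E-score), a modified Wilcoxon-Mann-Whitney statistic from -0.5 to +0.5, computed with the Universal PBM Analysis Suite. Scale: above 0.35 generally sequence-specific binding.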

Sequence | PBM E-score
AGTAAGAA | 0.113
AAGAGAAA | -0.0837
CTAGCTGA | -0.00193
AGTTATCC | -0.111
TGCGGGAA | 0.177
ACGTGTCC | -0.311
ACAACTCT | -0.0284
ACAACTGA | 0.293
CCCACACG | -0.0369
AGGTTTTG | 0.0633
CACCCCCG | 0.1
ACCGGTGA | -0.0973
GCCCTCCA | -0.0563
ATCTACCC | 0.121
CCATTACG | -0.105
ATTGTGTG | -0.0472
ACCTCCGA | -0.0688
ACTGTGCG | 0.0712
GGGGCGAA | 0.112
AGAGTATC | 0.106
GGCTTACA | 0.00317
TACGTATA | 0.0442
AAGGGACA | 0.0223
GGATGGCA | 0.106
AAAGCAAT | 0.151

Sequence | PBM E-score
AACACAAC | 0.172
TGTCCTAA | -0.141
AAATACCA | 0.203
GAAGCTAC | -0.184
AACGGGGG | -0.0478
ATGGTGTG | 0.113
GCTTTCAC | 0.0706
ACTTCCAC | -0.0183
ACGAGGCC | -0.225
AAGGGAAA | 0.0253
CCGAAGCG | -0.115
GCCGAGTA | -0.16
ATCCAACA | 0.0608
CCTGTATC | 0.112
ATCTAAGC | -0.00576
ATGTTGCG | 0.139
CATACTAG | 0.0597
AGATCAAC | 0.0312
AGGTACCA | -0.194
AGTTGGCC | -0.172
GCTTCCAC | -0.11
ATGCCAGA | 0.172
CGGGCGCC | -0.0614
GTGCATAA | 0.0464
GTGGTCCA | 0.00441

Sequence | PBM E-score
ACCAAACT | 0.187
ACCATGAA | 0.247
ATATATCA | 0.00834
AATTGAGG | 0.0215
AAGATCCT | -0.127
GCCCAAGA | -0.211
AAGGCAAC | -0.0828
ACGGGACA | 0.0992
CAGATTTA | 0.246
AAGGTCGC | -0.118
ACAGATCT | 0.0428
CTATTCAG | -0.0515
ACCGCCTC | -0.0604
AAAGATAC | 0.0821
AGAGGGGC | -0.147
GCTGTAAC | 0.197
AATCACCC | 0.182
ACTTCAAC | 0.00966
AAAAACTA | 0.188
GAGACACA | 0.12
ATACTCTA | 0.0717
GTCGCCGA | -0.0815
AACCCGTC | -0.187
GCAGTAAC | 0.00347
CAGTAATG | -0.0545

Sequence | PBM E-score
TCACTAGA | 0.119
CTTAGTCC | -0.127
TAGCCGAA | 0.0257
TACCGCTA | -0.0086
CGTGTGGA | -0.0738
AGAACCGC | 0.0751
AGACACTC | -0.0744
CAAATAAG | 0.0883
AGTAACTA | 0.116
CGTTATAC | -0.201
CCTCGGCC | -0.0272
ACACCCAC | 0.102
TAAGGGAA | 0.0806
CATCCGGC | -0.014
TTAAAGAA | 0.251
ATTAGATG | 0.206
CATTCAAC | -0.0546
CCGAGTAC | -0.126
CCTATAAC | 0.0184
TACGGCGA | 0.0254
GTACAATA | -0.0746
AGAGCATC | -0.148
GGCGGCGA | 0.0676
CAGGGCAA | 0.106
AGTCAACA | 0.0619

Sequence | PBM E-score
AAGTCGTA | -0.129
ATATATCG | 0.21
GGGGGCAA | -0.0188
ACTCCCTG | 0.0877
CAGACCTC | -0.21
TGAATACA | 0.119
CATCAAGA | -0.101
AACGTAAC | 0.201
AAAAGTCT | 0.158
CAAAATAG | -0.0251
AGCATGGA | -0.103
AGCGACAG | 0.0949
CGCAGAGA | -0.141
GGTGAAAA | 0.0914
AATAAATA | 0.21
AGCGACTC | -0.245
GTGGTGTA | -0.00016
GCTAGTCA | -0.214
CCCAAGAG | -0.164
AGGGCACC | -0.197
AGAAGCCG | 0.0203
AGCTCCTG | -0.121
AATAAAGG | -0.0048
TGAGTTAA | 0.0764
ACAACAAT | 0.177

Sequence | PBM E-score
ATGCAGTC | -0.108
GATCTCCC | -0.17
GGCGCTCA | -0.066
CTAACAGA | 0.153
CACCCGAG | 0.0483
ACTTGGCT | -0.163
AGCTATTC | -0.125
ATGCACGG | -0.0972
CCCACGGC | -0.18
GAAAGAGC | -0.0336
CCCAAACG | 0.0986
GAATATGA | 0.107
AGGGTCTA | -0.242
GCAGGCCA | -0.0982
CTTTTACA | 0.269
CATTAGTC | -0.0812
ACCGTTGG | -0.188
ACATGAGG | 0.0743
ACGGCGCA | -0.0878
CGAAAGAC | -0.0474
GGTGTAAC | 0.0791
ATCCCACA | 0.00176
ACGGGGTC | -0.00112
ATTCAGCC | -0.109
ATGATGAG | 0.0835

Sequence | PBM E-score
CAGCACGC | -0.164
CGCACCCA | 0.172
GTCTACTA | -0.134
ACAACGGC | -0.0667
CCAGGATA | 0.183
CATGCGGA | -0.138
AGTGCACC | 0.0145
ACACACAG | 0.123
ACGTTATA | 0.122
AAGGGAGG | -0.0233
AAGGCGGA | 0.029
CGTCGACG | -0.124
GTAGTTGA | 0.119
ACAACCCA | 0.118
AGTGCATC | -0.154
CGAGGTAG | -0.219
AACCTGAG | 0.158
CTCAACGC | -0.0089
AAATGACG | 0.132
GCACCTCA | -0.0873
CATCTTAA | 0.117
CGCTTCAG | 0.0977
AAAAAACG | 0.269
CAGATTCC | -0.0757
CGCTAATC | 0.0537

Sequence | PBM E-score
CCGTTAGC | -0.121
AACCTCCC | 0.0949
CGGTGATA | 0.104
GGAATTTA | -0.0537
AAGCAACT | -0.142
CTATCGCC | -0.142
GCGGATGA | 0.112
ACCAATCT | 0.068
CTGATGAC | -0.0999
AGGCGTTG | 0.0579
ACACCTCC | -0.226
GTGGATCA | -0.109
ATACAATA | 0.0662
ACCCTCGC | -0.0273
CATGAGAG | 0.025
GTAGGGCA | -0.204
ATCCCTTG | -0.0717
CAAGGAAG | -0.0844
GAGATACC | -0.128
GATGTCCA | -0.0339
TGAGTGAA | 0.0936
CTTGTATC | 0.112
GCCGGACC | -0.0631
ATCAGAAG | 0.0364
AGGCAGCG | -0.209

Sequence | PBM E-score
CACCTCAC | -0.0515
AGTAGTTG | 0.0408
CTGACCTC | -0.0377
TACCGCGA | 0.00553
GTGAAAGA | 0.031
AAATCGTG | 0.0961
ACCTAAAT | 0.11
CACGGATC | -0.133
GAACCAGC | 0.027
ATAGTGTG | 0.0404
GCACCTGC | -0.162
CTAACTTA | 0.0403
GGATAGCA | 0.0639
CTTCCTAC | -0.182
CTGTTAGA | 0.0136
GGTCAGGA | 0.00191
GGGTCTAC | -0.171
TACGGAAA | 0.0853
CGTGCCCA | -0.0282
CACGGCAA | 0.158
CACAGGGC | -0.2
AACATCAG | 0.182
ATCTCAGC | -0.112
AAAGCCAT | -0.0948
CGCATTCC | -0.208

Sequence | PBM E-score
AAATGGTC | -0.0895
TACCGACA | 0.0133
ATCGTTTG | 0.0575
AATGATAG | 0.194
GCCAAAGC | -0.0442
GACTACAC | -0.0845
GTGAGTGA | 0.0323
ACCCTAAC | 0.119
ACTAAGCG | -0.0935
ATCGCAGA | -0.0897
ATTCTAGA | 0.132
ACGTCGTA | -0.252
ACGAGTGG | -0.155
AGTGATTG | 0.0425
CCGGTGGA | 0.0386
CCACGGCG | -0.0408
TGGCCCAA | -0.0405
GCAAGACA | -0.0585
GTTAATAA | 0.0895
CTGTCGAC | -0.15
CCACTCTC | -0.177
CCGACCAA | -0.0718
GGGCAGCA | -0.0741
AGGCTCGA | -0.126
ACAGTCGC | -0.131

Sequence | PBM E-score
AGCCCATC | -0.145
ACGACACT | -0.0852
CTGCAGCA | 0.0849
CGCCGCCC | 0.239
CTTCAGTA | -0.0752
CAGGCAAG | -0.15
ACGCGCTA | 0.0584
ATCTGCGC | 0.0309
GCATGCAA | -0.0312
TAAAACCA | 0.21
CCAGGTCG | -0.15
CGATCATA | 0.0637
GAGGAAAA | 0.0833
AACGGTCT | -0.0484
AAACACTG | 0.248
CAGGTCAA | -0.0358
GGACGCCC | -0.152
TGGTGAAA | 0.277
AAGGTAGG | -0.0392
GCCCGATA | -0.0773
CCGCAAAG | 0.00201
CACGTGAG | 0.00678
GCACATAC | -0.259
ACGTCTCA | 0.274
ACGGTTTC | 0.2

Sequence | PBM E-score
GATAGTTA | 0.166
AATTCGAA | 0.21
CTGGTCGA | -0.196
AGGAGCAA | -0.108
CTAGCTCA | -0.215
CATGGATC | -0.0524
AGTATGCC | -0.13
AGGGCCAA | -0.23
GAGTGGAA | -0.102
CCGTCACG | 0.0664
ACGTCAGC | 0.036
AGCCAATC | -0.0364
GCTATGAC | 0.0507
ACCTAGCA | 0.113
CCAAAGGC | -0.153
AAGATATG | 0.156
GAAGGCAA | 0.0764
TCCGAGCA | 0.107
AATCCAGG | -0.0109
AATGCGAT | -0.0389
ACAGACGA | 0.0302
CGTAGTAA | -0.0683
ACACAATC | 0.0762
CGAGAATC | -0.128
ATCGACCA | -0.0672

Sequence | PBM E-score
AATAAGAC | -0.00658
CGTCTAGC | -0.211
AAGCCCGA | -0.152
CCCGCCTA | 0.112
GGATTAAC | 0.0387
ATGAGCCA | -0.082
CCCCACGC | -0.135
CGCCGCTC | -0.00968
ATGATATC | -0.0249
CAGACGGG | -0.0516
AGGATTGC | -0.025
AAATCCCG | 0.0351
CAGGGATC | -0.123
GACAAATA | 0.114
AGGACTCG | -0.268
TGATTGCA | 0.00814
ACCCGCAC | 0.00611
AGACGTTA | -0.0587
GACCTTGA | -0.00516
AGGTAGGG | -0.0244
AAACATCA | 0.328
AGAATTCC | 0.189
ATCGGCTC | -0.123
ACTTCGAG | 0.0994
GGTGCCAA | -0.00466

Sequence | PBM E-score
ACACTTGG | -0.0856
AAGTTCGG | -0.0616
AAGAGATG | 0.0742
CTGGACCA | -0.0242
CACTATTC | 0.0168
CATGCACG | -0.212
AAGGATGA | 0.0364
GCTACAAA | 0.0903
ACGTTGAA | 0.0985
ATGCAACC | 0.0477
TGTCAGAA | 0.107
AAGCATTA | -0.0548
AATATTGA | 0.187
TCTCAGAA | 0.0441
CAATGCGC | 0.0832
TGGGAAAA | 0.141
TCAAGTGA | -0.0459
CTACGGGC | -0.225
CCTCATCC | 0.112
